B1: STIM1 […] (characterized in vitro) (domain or fragment)
chain: not shown
notes: signal peptide in the construct; it may be the CFP fusion m33
B2: SOAR (recombinant, in vitro gel filtration) (domain or fragment)
chain: not shown
notes: probably from pMCSG9-SOAR as m15; also called dimeric SOAR; source: recombinant

Assays:
[1] = biological target: the molecule itself; assay: SEC + native gel or EMSA; in vitro, with or without Ca^2+; detergents needed to keep the proteins soluble
[2] = biological target: the molecule itself; assay: SEC; in vitro gel filtration elution profiles of SOAR (Supplementary Fig. 2f), without detergent

Protein | stoichiometry N [1] | stoichiometry N [2]
B1 | 2 | –
B2 | – | 2

Reference: PMC4509486, “Inside-out Ca^2+ signalling prompted by STIM1 conformational switch” (Nature Communications, 2015)
